In PubChem BioAssay AID2675 (National Center for Advancing Translational Sciences (NCATS), 2010):
Screen size: about 280,000 compounds; about 100 (0.036%) were called active. The inconclusive results got no clear call from the source; some entries with a clear call stand among them for comparison. Calls come from the whole dose curve; as a rule, active = well fitted inhibition curve with a large enough effect in the signal ratio, with a control signal flat (not every such curve was filed as active); inconclusive = small, poorly fitted or top-dose-only effect, or effect the other way, or a change in a side signal; inactive = no such curve, though single readings can be large or run the other way; the % refers to the signal ratio. Potencies of inconclusive entries are doubtful fits and often do not repeat. “Side channel” marks fits to a control or component signal instead of the main read-out.

biological target: Muscleblind-like protein 1 (Homo sapiens) (UniProt Q9NR56); experiment: qHTS Assay for Inhibitors of MBNL1-poly(CUG) RNA binding; settings: TR-FRET MBNL1-His/biotin-(CUG)12 binding, 665/545 ratio; activity change, negative = inhibition: at 57.5 µM (top of the series)
Method in brief: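 Compound titration spanned 92 nM–58 uM against the MBNL1-His/biotin-(CUG)12 complex. After 60 min at room temperature with 5 nM streptavidin-XL665 and 0.055 ng/ul terbium anti-His, ratiometric 665/545 nm emission (Ex 340 nm) normalized to controls.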
% is set by controls: 0 for no effect and ±100 for the full control effect; potency is the fitted concentration of half-maximal effect; tags give direction and shape of the fitted curve or compound fluorescence and quenching.

Chain of UniProt Q9NR56 (Q9NR56 whole entry, looked up): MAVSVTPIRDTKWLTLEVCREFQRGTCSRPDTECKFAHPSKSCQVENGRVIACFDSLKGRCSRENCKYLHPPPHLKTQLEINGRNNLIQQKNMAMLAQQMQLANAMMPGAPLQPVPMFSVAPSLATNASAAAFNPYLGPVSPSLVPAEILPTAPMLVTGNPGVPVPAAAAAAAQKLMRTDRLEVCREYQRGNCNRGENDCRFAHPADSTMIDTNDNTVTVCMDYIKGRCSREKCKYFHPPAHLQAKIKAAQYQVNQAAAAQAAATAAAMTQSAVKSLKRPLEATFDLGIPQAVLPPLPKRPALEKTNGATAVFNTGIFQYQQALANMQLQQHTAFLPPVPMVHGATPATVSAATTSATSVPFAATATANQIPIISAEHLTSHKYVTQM

| SMILES | Potency | activity change, negative = inhibition |
| --- | --- | --- |
| O=C(Nc1ccc(C2CC2(Cl)Cl)cc1)c1cccc([N+](=O)[O-])c1 (centres undefined) | inconclusive: 31.6 µM [quencher, side channel, single point] |  |
| CC(=O)Nc1cccc(C(=O)N/N=C/c2cccnc2)c1 |  | inactive: 13.5% |
| COc1cc([N+](=O)[O-])cc2sc(NC(C)=O)nc12 | inconclusive: 8.91 µM [quencher, side channel, partial curve] |  |
| c1ccc(CN2CCN(CCCNc3ccc4nnc(-c5ccccc5)n4n3)CC2)cc1 |  | inactive: 0.0264% |
| O=C(Cc1c(Cl)cccc1Cl)Nc1ccncc1Cl | inconclusive: 39.8 µM [quencher, side channel, single point] |  |
| COc1ccc(-c2csc(N3CCN(c4cc(C)nc5ccccc45)CC3)n2)cc1OC |  | inactive: 7.87% |
| CCOc1ccc(CN2CCN(Cc3cccn3-c3ncccn3)CC2CCO)cc1 (centres undefined) |  | inactive: 3.99% |
| CCn1nnnc1SCC(=O)c1ccc2c(c1)OCCO2 |  | inactive: 10.5% |
| CN1CCN(CCNC(=O)Nc2ccc([N+](=O)[O-])cc2)CC1 | inconclusive: 10 µM [quencher, side channel, partial curve] |  |
| Fc1ccccc1/C=C1\CCCC2=C1NC(=S)NC2c1ccccc1F (centres undefined) |  | inactive: -4.67% |
| N#C/C(=C/c1ccc(N2CCOCC2)o1)c1ccc(Cl)cc1 |  | inactive: 27.5% |
| Cc1ccc(S(C)(=O)=NS(=O)(=O)c2cccc3nsnc23)cc1 (centres undefined) | inconclusive: 10 µM [quencher, side channel, partial curve] |  |
| CC(C)OCCCNC(=O)c1ccc2c(c1)S(=O)(=O)c1ccccc1C2=O | inconclusive: 12.6 µM [quencher, side channel, partial curve] |  |
| CC(=O)c1ccc(-c2nnc(CCC(=O)N(C)Cc3cccc4cnccc34)o2)s1 | inconclusive: 11.2 µM [quencher, side channel, partial curve] |  |
| Cc1ccc(-c2ccc(/C=N/NC(=S)Nc3ccccc3)o2)cc1[N+](=O)[O-] |  | inactive: 11.1% |
| O=C(CCCn1c(=S)[nH]c2ccc(Br)cc2c1=O)N1CCN(c2ccccn2)CC1 |  | inactive: -5.65% |
| O=C(N/N=C/c1c[nH]c2ccccc12)c1cccc(Cl)c1 |  | inactive: -0.463% |
| Cc1ccc(C2SCCN2C(=O)c2ccc([N+](=O)[O-])cc2)cc1 (centres undefined) | inconclusive: 25.1 µM [quencher, side channel, partial curve, poor fit] |  |
| CC1(C)CC(=O)C2=C(C1)Nc1ccccc1NC2c1ccccn1 (centres undefined) | inconclusive: 20 µM [quencher, side channel, partial curve] |  |
| CCN1C=CC(=C2C(=O)c3ccccc3C2=O)C=C1 | inconclusive: 11.2 µM [quencher, side channel, partial curve] |  |
| CCc1ccc(OCC(=O)NC(NC(=S)Nc2ccccc2C)C(Cl)(Cl)Cl)cc1 (centres undefined) | inconclusive: 0.1 µM [fluorescent, side channel, full curve, poor fit] |  |
| CCCC(=O)N1CC(=O)Nc2ccc(F)cc2C1c1ccccc1 (centres undefined) |  | inactive: -5.47% |

| SMILES | Potency | activity change, negative = inhibition |
| --- | --- | --- |
| O=C(N/N=C/c1ccccc1)C(O)c1ccccc1 (centres undefined) |  | inactive: 0.609% |
| COC(=O)c1cccc(NS(=O)(=O)c2cccs2)c1C |  | inactive: -9.36% |
| O=C(COc1ccc2c(-c3ccccc3)cc(=O)oc2c1)N[C@@H](Cc1c[nH]c2ccc(O)cc12)C(=O)O | inconclusive: 31.6 µM [quencher, side channel, single point] |  |
| CCc1ccc(C(=O)COC(=O)CCc2nc3ccccc3c(=O)[nH]2)cc1 | inconclusive: 20 µM [fluorescent, side channel, partial curve] |  |
| O=C(O)c1ccc(Cl)c2c1C1C=CCC1C(c1ccccn1)N2 (centres undefined) | inconclusive: 22.4 µM [quencher, side channel, partial curve] |  |
| OCCNc1c2ccccc2nc2ccccc12 | inconclusive: 20 µM [quencher, side channel, partial curve] |  |
| O=C(O)[C@H]1CCCC[C@H]1C(=O)Nc1ccc(Nc2ccccc2)cc1 |  | inactive: 1.8% |
| CCN(CC)c1ccc(/C=N/NC(=O)c2ccc3nc[nH]c3c2)c(O)c1 | inconclusive: 39.8 µM [quencher, side channel, single point] |  |
| O=C(Cc1ccc([N+](=O)[O-])cc1)N/N=C/c1ccc([N+](=O)[O-])o1 | inconclusive: 14.1 µM [quencher, partial curve] |  |
| COC(=O)c1oc2ccccc2c1N |  | inactive: 14.4% |
| Cc1ccc(NC(=O)C[n+]2ccn(C3=C([O-])c4ccccc4C3=O)c2)cc1 | inconclusive: 7.08 µM [quencher, side channel, partial curve] |  |
| Fc1ccc(F)c(C2=NNC(=Nc3ccccc3F)SC2)c1 | inconclusive: 39.8 µM [quencher, side channel, single point] |  |
| c1coc(C2=NCCc3ccccc32)c1 | inconclusive: 22.4 µM [quencher, side channel, partial curve] |  |
| CN(C)c1ccc(N=Nc2ccc(C(=O)O)cc2)cc1 | inconclusive: 12.6 µM [quencher, side channel, partial curve] |  |
| COc1ccc(C(=O)/C=C/Nc2ccccn2)cc1 | inconclusive: 14.1 µM [quencher, side channel, partial curve] |  |
| COc1cccc(C(=O)N2CCN(Cc3ccc(OC)cc3OC)CC2)c1 | inconclusive: 100 µM [inhibitor, single point] |  |
| CC(=O)Nc1ccc(Nc2nnc(-c3ccc(C)c(S(=O)(=O)NCCO)c3)c3ccccc23)cc1 | inconclusive: 28.2 µM [quencher, side channel, partial curve] |  |
| O=CNNC(=O)c1cccc([N+](=O)[O-])c1 | inconclusive: 25.1 µM [quencher, side channel, single point] |  |
| Cc1ccc(Nc2nnc(SCC(=O)Nc3cc(C(=O)O)ccc3C)s2)c(C)c1 | inconclusive: 126 µM [inhibitor, partial curve] |  |
| Cc1nonc1NC(=O)c1ccc(Cl)c(S(=O)(=O)N2CCCCC2)c1 |  | inactive: -4.36% |
| Cc1ccc(-c2nn(-c3ccccc3)cc2C=C2C(=O)CC(C)(C)CC2=O)cc1 |  | inactive: -2.95% |
| CC(/C=C/c1ccco1)=N\NC(=O)C(O)c1ccccc1 (centres undefined) | inconclusive: 20 µM [quencher, side channel, single point] |  |

| SMILES | Potency | activity change, negative = inhibition |
| --- | --- | --- |
| COc1ccc(-c2cc(=O)oc3c(C)c(OCC(=O)N[C@@H](Cc4ccc(O)cc4)C(=O)O)ccc23)cc1 | inconclusive: 14.1 µM [quencher, side channel, partial curve] |  |
| C=CCOn1c(=O)c(C)[n+]([O-])c2ccccc21 | inconclusive: 11.2 µM [quencher, side channel, partial curve] |  |
| COc1ccc2ccccc2c1/C=N/NC(=O)CC1(C)OCCCO1 | inconclusive: 0.562 µM [quencher, side channel, full curve, poor fit] |  |
| O=C(NCCCn1ccnc1)/C(=C\c1ccc(Br)cc1)NC(=O)c1ccccc1F |  | inactive: 17.6% |
| O=c1[nH]cc(NCCNc2ncc(C(F)(F)F)cc2Cl)c(=O)[nH]1 | inconclusive: 39.8 µM [fluorescent, side channel, single point] |  |
| CCC(=O)Nc1ccc(Nc2ccccc2)cc1 | inconclusive: 10 µM [quencher, side channel, partial curve] |  |
| N#CCCn1c(C2CCCCC2)nc2ccccc21 |  | inactive: 5.35% |
| O=[N+]([O-])c1ccc(C(=S)N2CCC(Cc3ccccc3)CC2)cc1 | inconclusive: 0.0891 µM [fluorescent, side channel, full curve, poor fit] |  |
| CCOC(=O)CN1C(=O)S/C(=C\c2ccc(-c3ccc(C(=O)O)c(Cl)c3)o2)C1=O | inconclusive: 7.94 µM [quencher, partial curve] |  |
| COc1ccc(C(=O)C(C)[n+]2ccc(C)c3ccccc32)cc1[N+](=O)[O-] (centres undefined) | inconclusive: 25.1 µM [quencher, side channel, partial curve] |  |
| COc1cc([N+](=O)[O-])ccc1NC(=O)COC(=O)C=C(C)C | inconclusive: 11.2 µM [quencher, partial curve] |  |
| O=C(NCc1cccnc1)c1ccc2c(c1)C(=O)N(Cc1ccccc1)C2=O | inconclusive: 15.8 µM [quencher, partial curve] |  |
| COc1ccc(OC)c(C(=O)NC(CC(N)=O)c2ccc(N3CCC(N4CCCC4)CC3)c([N+](=O)[O-])c2)c1 (centres undefined) | inconclusive: 15.8 µM [quencher, side channel, partial curve] |  |
| Cc1ccc(S(=O)(=O)c2cn(C)c3cc(N4CCOCC4)c(F)cc3c2=O)cc1 |  | inactive: 11.6% |
| Cn1cc([N+](=O)[O-])c(C(=O)Nc2ccn(Cc3c(F)c(F)cc(F)c3F)n2)n1 | inconclusive: 22.4 µM [quencher, side channel, partial curve] |  |
| COc1ccc(N2CCN(C(=O)C3CCCN3S(=O)(=O)c3cccc4nsnc34)CC2)cc1 (centres undefined) | inconclusive: 15.8 µM [quencher, side channel, partial curve] |  |
| CCCCC(=O)Nc1ccc(NC(=S)NC(=O)CC(C)C)cc1OC | inconclusive: 25.1 µM [fluorescent, side channel, partial curve, poor fit] |  |
| Cc1cccn2c(=O)c3cc(S(=O)(=O)c4ccccc4)c(=N)n(Cc4ccco4)c3nc12 | inconclusive: 11.2 µM [quencher, side channel, partial curve] |  |
| CCNCCC(=O)N1c2ccccc2Sc2ccc(C(F)(F)F)cc21 |  | inactive: -7.46% |
| COc1ccc(-c2nnc(-c3ccc(F)cc3)o2)cc1 |  | inactive: -2.93% |
